# In the supplement of paper PMC12217912:
# The other results are listed elsewhere or left out. The full chains were built here from the parent and the listed change. Values near 0.05 are background.
# B1: TEV protease; numbered along this chain (parent)
# chain: MGESLFKGPRDYNPISSSICHLTNESDGHTTSLYGIGFGPFIITNKHLFRRNNGTLVVQSLHGVFKVKDTTTLQQHLVDGRDMIIIRMPKDFPPFPQKLKFREPQREERICLVTTNFQTKSMSSMVSDTSCTFPSGDGIFWKHWIQTKDGQCGSPLVSTRDGFIVGIHSASNFTNTNNYFTSVPKNFMELLTNQEAQQWVSGWRLNADSVLWGGHKVFMVKPEEPFQPVKEATQL
# Variants of: B1
# Assay: raw area under fraction-flipped curve 0-4 h after induction (AUC4h, not background-subtracted), DNA-recorder readout of cleavage of the substrate (dimensionless); higher = more cleavage of the substrate by the protease variant
# Details: temperature: 34 °C; time window: 0-4 h after rhamnose induction
# Experimental: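 In vivo DNA recorder in E. coli TOP10(DE3) ΔrhaA at 34 °C. Each TEVp single-site mutant (parent TEVp 0) is paired with a single-site variant of the 7-mer TEVs (canonical ENLYFQ|S). The substrate sits between flexible linkers in a Bxb1-sfGFP-TEVs-SsrA fusion, so cleavage stabilises Bxb1 and speeds flipping of a recombination array, read by NGS. The value is the raw area under the fraction-flipped curve over 0-4 h after rhamnose induction (AUC4h), with ≥20 reads per time point. It is not background-subtracted; inactive controls average about 0.047.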
# 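Note: Bxb1 expression induced with 0.2% (w/v) L-rhamnose at OD600 near 0.5, cultures sampled hourly, flipped fraction per protease–substrate barcode pair counted by paired-end Illumina sequencing.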
Variant,area with substrate ECLYFQS,area with substrate EDLYFQS,area with substrate EELYFQS,area with substrate EGLYFQS,area with substrate EHLYFQS,area with substrate EILYFQS,area with substrate EKLYFQS,area with substrate ELLYFQS,area with substrate EMLYFQS,area with substrate EPLYFQS,area with substrate EQLYFQS,area with substrate ESLYFQS,area with substrate EVLYFQS,area with substrate EWLYFQS,area with substrate EYLYFQS,area with substrate ETLYFQS,area with substrate EFLYFQS,area with substrate ERLYFQS
N13G,0.0908,0.105,0.0944,0.0845,0.0931,0.0785,0.134,0.12,0.117,0.103,0.082,0.0957,0.0812,0.103,0.0883,,,
K66P,0.104,,,,,0.0968,0.0841,0.0923,0.0954,0.0963,,0.0953,0.0832,0.0575,,0.109,,
F187I,0.103,0.115,0.127,0.0973,0.104,0.0897,0.113,0.0677,0.121,,0.144,0.0949,0.097,0.101,,,0.0989,0.0906
S26K,0.0762,0.0634,0.0603,0.0622,,0.0601,0.0899,0.0712,0.0674,0.0629,0.0783,0.0656,0.0612,,0.0749,0.0665,,0.0758
R51A,0.102,0.174,,0.0852,,0.0877,0.175,,0.0997,,,0.117,0.0987,,0.105,0.118,,0.093
S201K,0.109,,0.123,,,0.111,,0.0096,,,,0.0993,,,,,,0.0907
V57L,0.146,0.14,,,,0.102,0.125,0.0757,0.0992,0.111,,0.121,0.109,0.108,,,,0.111
V126N,0.102,0.129,0.131,,0.135,0.111,0.127,,0.12,0.147,0.131,0.12,0.113,0.0894,,,0.0539,0.129
H143A,0.0919,0.142,0.119,0.0807,0.125,0.0895,0.105,,0.093,0.11,0.11,0.0823,0.083,0.0732,0.103,,0.0836,0.0707
S32H,0.111,0.128,0.103,0.0872,0.0948,0.0884,0.0938,0.0841,,,0.115,0.109,0.0926,0.103,0.105,,0.105,0.0873
F187Q,0.0645,,0.0931,0.0627,,0.0642,0.0761,0.0667,,0.074,0.0738,0.053,0.071,0.0633,,,0.0625,0.075
T31P,0.0724,0.0867,,0.0588,0.0758,0.0558,0.0536,0.0824,0.055,0.062,0.069,0.0701,0.0432,0.0735,,0.0602,,0.0556
G162M,0.102,,0.102,0.113,0.0874,0.0856,0.0922,0.0818,0.118,0.129,,0.0922,0.0872,0.1,,,,0.0936
S4N,0.112,0.0637,0.153,0.108,0.138,,0.113,0.147,0.149,0.125,0.141,0.128,,0.0609,0.136,0.139,0.148,0.157
V217A,0.0666,0.0947,,0.0637,0.0928,0.0726,0.0754,0.0739,,0.0709,0.0716,0.0888,,0.0296,0.0834,0.0566,,
H168W,0.025,0.0389,0.0737,,0.0587,0.0574,0.0829,0.0596,0.062,0.0573,0.058,0.0613,0.0589,0.0465,0.0605,0.0521,,0.0626
P155W,0.066,0.0532,0.064,0.0688,,0.0396,0.0498,0.0477,0.0449,0.0233,0.0523,0.0564,0.0515,0.0544,0.0542,0.0557,,0.0678
F180L,0.101,,,,,,,,0.129,,0.175,0.15,0.078,,,0.126,,
K230E,0.0929,,,0.102,0.0993,0.0835,0.113,0.094,0.129,0.102,,0.101,0.0932,0.0991,0.114,,,0.101
V67D,0.0725,0.0683,,,,0.0545,0.085,0.0681,0.0693,0.113,0.064,0.0597,0.0519,0.0646,,0.0622,,0.0695
F6H,0.101,0.132,0.107,0.12,,0.104,0.0974,0.0972,,,0.106,0.11,,,,0.121,,
K100R,,0.124,,0.103,0.141,0.0886,0.119,,0.111,,,0.0984,0.1,0.0915,,0.126,,0.0864
K221Q,,0.136,0.121,,0.103,0.0926,,,0.0795,,0.109,0.0941,0.0797,,0.0759,,0.124,
F65W,,0.0665,0.113,,,0.0893,0.0967,0.0727,0.1,0.107,0.118,0.0897,0.104,0.0938,0.149,,,0.103
G150K,,0.0583,0.0534,,0.0475,0.0558,0.0665,,,0.0546,,0.0569,0.0577,0.0654,0.0694,0.0472,,0.0649
R10C,,0.0947,0.0975,0.0807,,0.096,,,,0.128,0.122,0.0885,0.0694,0.0608,0.114,,,
V200N,,0.0963,0.08,0.0842,0.0682,0.0609,,0.0596,,,,0.0548,,0.0668,,,0.0617,0.0617
